Results on five compounds are retold here after patent US20130064812A1, “COMBINATION THERAPIES FOR HEMATOLOGIC MALIGNANCIES” (Gilead Calistoga LLC, priority 2011, published 2013).

Some results are limits rather than exact numbers.

One data set has as its target CIIbeta (Homo sapiens, UniProt O00750). Description: InvitroGen Adapta kinase assay, CIIbeta. The class given is biochemical. Particulars: Class II PI3K.
Another data set addresses hVPS34 (Homo sapiens, UniProt Q8NEB9). Particulars: read-out: hVPS34 IC50; Class III PI3K; InvitroGen Adapta assay.
The subject of a further data set is CLL cells. Description: BH3 profiling (mitochondrial depolarization) of CLL cells. The class given is cell-based, human. Particulars: stroma-exposed; p=0.046 and p=0.047.
The test system of data set [1] is CLL cells with StromaNKTert. As to the kind of experiment: Viability / apoptosis of stroma-exposed CLL cells (Annexin V/PI). Particulars: 24 hours. The class given is cell-based, human.
In data set [2] the test system is AKT (ser473), GSK3β (ser9). As to the kind of experiment: AKT and GSK3β phosphorylation in CD19+ CLL cells with lenalidomide (immunoblot). Particulars: 48 hours.
Data set [3] deals with CD19+ cells from CLL patients. As to the kind of experiment: mRNA expression in CD19+ CLL cells (RT-PCR). Particulars: 0.5 μM lenalidomide and/or 10 μM compound, 48 hours. The class given is cell-based, human.
In another data set the test system is INA-6 cells. As to the kind of experiment: SCID-hu model, INA-6 cells in human bone chip (serum shuIL-6R). The class given is in vivo, mice. Particulars: 10 or 30 mg/kg daily.
The next data set deals with LB cells. Description: Subcutaneous LB human MM xenograft in SCID mice. The class given is in vivo. Particulars: for MM tumor growth versus control mice: 10 mg/kg (P<0.05) or 30 mg/kg (P<0.01) orally twice a day; for mean Overall Survival (OS): control 15 days.
For data set [4], the system named is relapsed or refractory B-cell malignancies (NHL, CLL). As to the kind of experiment: Clinical study, combination with rituximab or bendamustine, 12 patients (Example 38). Particulars: compound 100 mg BID.
The subject of data set [5] is CLL cells co-cultured with MSCs. Description: CLL cells co-cultured with marrow stromal cells (MSC), DiOC6/PI viability. Particulars: 72 hours, co-culture with MSCs, 9 patient samples, mean (±SEM).

Chain of hVPS34 (Q8NEB9 whole entry): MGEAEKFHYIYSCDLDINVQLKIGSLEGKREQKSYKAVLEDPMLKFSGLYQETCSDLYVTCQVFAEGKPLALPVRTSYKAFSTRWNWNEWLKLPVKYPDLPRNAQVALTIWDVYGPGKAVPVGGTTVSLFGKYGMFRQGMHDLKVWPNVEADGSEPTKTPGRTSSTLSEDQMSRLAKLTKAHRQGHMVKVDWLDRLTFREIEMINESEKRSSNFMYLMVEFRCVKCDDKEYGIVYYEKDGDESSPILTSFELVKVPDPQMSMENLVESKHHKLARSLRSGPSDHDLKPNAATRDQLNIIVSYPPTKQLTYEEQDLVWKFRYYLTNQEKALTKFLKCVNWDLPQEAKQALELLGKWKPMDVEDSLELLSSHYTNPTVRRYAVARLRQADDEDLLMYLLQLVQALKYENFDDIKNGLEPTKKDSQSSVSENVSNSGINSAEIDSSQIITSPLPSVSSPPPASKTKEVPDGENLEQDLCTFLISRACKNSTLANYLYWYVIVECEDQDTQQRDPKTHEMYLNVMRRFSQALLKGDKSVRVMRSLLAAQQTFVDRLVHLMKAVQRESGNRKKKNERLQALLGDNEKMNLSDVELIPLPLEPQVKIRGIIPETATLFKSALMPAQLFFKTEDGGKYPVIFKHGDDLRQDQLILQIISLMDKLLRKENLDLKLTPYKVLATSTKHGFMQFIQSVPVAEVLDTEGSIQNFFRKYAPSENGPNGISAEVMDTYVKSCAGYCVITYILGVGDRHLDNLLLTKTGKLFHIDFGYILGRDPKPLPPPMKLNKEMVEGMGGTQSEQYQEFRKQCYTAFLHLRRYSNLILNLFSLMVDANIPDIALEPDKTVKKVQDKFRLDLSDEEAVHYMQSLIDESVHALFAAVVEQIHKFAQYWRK
Chain of CIIbeta (O00750 whole entry): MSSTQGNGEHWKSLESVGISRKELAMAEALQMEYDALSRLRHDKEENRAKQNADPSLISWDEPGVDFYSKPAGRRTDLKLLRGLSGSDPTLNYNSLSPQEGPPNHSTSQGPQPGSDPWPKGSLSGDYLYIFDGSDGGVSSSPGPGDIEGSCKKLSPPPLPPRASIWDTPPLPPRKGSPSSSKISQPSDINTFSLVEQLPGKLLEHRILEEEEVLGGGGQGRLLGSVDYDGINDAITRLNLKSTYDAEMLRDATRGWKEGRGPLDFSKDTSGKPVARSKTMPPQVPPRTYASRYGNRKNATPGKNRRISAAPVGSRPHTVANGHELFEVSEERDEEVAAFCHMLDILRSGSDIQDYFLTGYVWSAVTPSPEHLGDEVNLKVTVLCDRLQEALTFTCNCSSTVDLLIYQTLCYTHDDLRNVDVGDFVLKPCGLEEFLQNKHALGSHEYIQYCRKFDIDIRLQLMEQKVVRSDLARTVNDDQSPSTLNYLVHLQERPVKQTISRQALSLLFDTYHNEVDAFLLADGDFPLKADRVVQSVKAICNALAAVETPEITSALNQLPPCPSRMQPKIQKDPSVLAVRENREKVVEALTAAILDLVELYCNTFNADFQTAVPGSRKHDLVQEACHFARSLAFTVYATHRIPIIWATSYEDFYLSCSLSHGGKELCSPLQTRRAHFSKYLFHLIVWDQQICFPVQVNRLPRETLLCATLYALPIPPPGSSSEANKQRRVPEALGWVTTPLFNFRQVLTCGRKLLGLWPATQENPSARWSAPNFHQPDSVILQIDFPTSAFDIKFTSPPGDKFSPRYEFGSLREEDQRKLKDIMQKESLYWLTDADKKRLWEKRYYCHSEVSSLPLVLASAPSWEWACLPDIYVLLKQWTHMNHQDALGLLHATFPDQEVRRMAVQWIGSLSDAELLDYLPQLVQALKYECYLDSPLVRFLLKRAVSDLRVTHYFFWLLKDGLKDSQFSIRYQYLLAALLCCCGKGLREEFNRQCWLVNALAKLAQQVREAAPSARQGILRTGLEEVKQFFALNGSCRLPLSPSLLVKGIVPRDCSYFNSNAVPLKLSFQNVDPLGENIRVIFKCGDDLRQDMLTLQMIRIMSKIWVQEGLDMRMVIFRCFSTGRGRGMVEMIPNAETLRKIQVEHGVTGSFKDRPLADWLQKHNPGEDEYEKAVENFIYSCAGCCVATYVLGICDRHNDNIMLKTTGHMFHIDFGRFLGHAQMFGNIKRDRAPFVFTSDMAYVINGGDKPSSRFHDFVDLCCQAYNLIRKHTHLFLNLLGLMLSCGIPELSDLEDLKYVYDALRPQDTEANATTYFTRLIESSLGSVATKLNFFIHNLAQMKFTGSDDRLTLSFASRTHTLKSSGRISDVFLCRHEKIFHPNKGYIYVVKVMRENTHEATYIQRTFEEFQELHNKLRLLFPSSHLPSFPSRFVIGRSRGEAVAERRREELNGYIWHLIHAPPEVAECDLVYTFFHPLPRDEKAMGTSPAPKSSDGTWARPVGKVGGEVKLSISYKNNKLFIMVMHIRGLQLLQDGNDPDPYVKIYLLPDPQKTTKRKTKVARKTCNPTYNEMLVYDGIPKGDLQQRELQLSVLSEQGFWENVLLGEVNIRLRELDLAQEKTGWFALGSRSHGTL

Take `Cn1c(=O)n(-c2ccc(C(C)(C)C#N)cc2)c2c3cc(-c4cnc5ccccc5c4)ccc3ncc21` [NVP-BEZ-235, reference compound]: the IC50 is 3 nM at CIIbeta and 6 nM on hVPS34.

On to `CN(C)CC[C@H](CSc1ccccc1)Nc1ccc(S(=O)(=O)NC(=O)c2ccc(N3CCN(Cc4ccccc4-c4ccc(Cl)cc4)CC3)cc2)cc1[N+](=O)[O-]` [ABT-737, reference compound], for which, in the data set on CLL cells, the “mitochondrial depolarization in CLL cells treated with compound I” value was “induced significantly more mitochondrial depolarization”. Further, the “stroma-mediated resistance (CLL cell viability)” value in data set [1] (two patients, ABT-737 100 nM, compound I 10 μM) is listed as “profound stroma-mediated resistance”. Further, in data set [1] (with or without compound I), the “ABT-737 concentration overcoming resistance in the presence of StromaNKTert” value was ≥ 10 nM.

As for `Nc1cccc2c1CN(C1CCC(=O)NC1=O)C2=O` (centres unmarked) [lenalidomide], in data set [2] (0.5 μM lenalidomide and/or 1 or 10 μM compound), the “AKT activation / phosphorylation (ser473) with lenalidomide” value is on record as “up-regulates CD154 on CLL cells by activation of AKT”. Further, the “GSK3β phosphorylation (ser9)” value in data set [2] (0.5 μM lenalidomide and/or 1 or 10 μM compound, N=4) is “increase in phosphorylation of GSK3β”. Also, the “phosphorylation of AKT when PI3K-δ knocked down” value in [2] (siRNA to PI3K-δ, 0.5 μM lenalidomide, N=3) is “unable to induce phosphorylation of AKT”. In addition, in [3] (N=13), the VEGF transcription result is reported as “increased transcriptional levels of VEGF in a subset (8 of 13) of patients”. In addition, the b-FGF transcription entry in data set [3] (N=15) is listed as “increased transcriptional up-regulation of b-FGF in all patients”.

Turning to `CC(Nc1ncnc2[nH]cnc12)c1nc2ccc(F)cc2c(=O)n1-c1ccccc1` (centres unmarked) [Compound II, 2-(1-(9H-purin-6-ylamino)ethyl)-6-fluoro-3-phenylquinazolin-4(3H)-one], the “tumor growth (serum shuIL-6R)” value in the data set with INA-6 cells is given as “significantly inhibited tumor growth compared with vehicle control”. Also, the figures for the “MM tumor growth versus control mice” value in the data set with LB cells and in the data set with LB cells (listed as compound II) were “significantly reduced MM tumor growth” and “strong In vivo activity on the human xenograft tumor”, respectively. Further, the “mean Overall Survival (OS)” value in the data set with LB cells (10 mg/kg, 95% CI 15-34 days) was 23 days; in the data set with LB cells (30 mg/kg, 95% CI 27-49 days), 32 days. The “p-Akt and p-PDK-1 in tumor tissue” value in the data set on LB cells (30 mg/kg) was “significantly inhibited p-Akt and p-PDK-1”. Also, the “CD31 positive cells and microvessel density” value with LB cells (30 mg/kg, p<0.01) is “significantly decreased”. The body weight entry in the data set on LB cells (mouse, in vivo) is given as “did not affect body weight”.

On to `Cn1c(CCCC(=O)O)nc2cc(N(CCCl)CCCl)ccc21` [bendamustine, reference compound], for which the safety and tolerability entry in [4] is “dose reduction of bendamustine due to hiccups”. For the same compound, the “CLL cell viability relative to untreated controls” value in data set [5] is 60%.
